Assay results published in patent US20170307628A1 (EIDGENOESSISCHE TECHNISCHE HOCHSCHULE ZURICH, published 2017).

Assays:
[1] = target: T1, recombinant human IL-17A (human, UniProt Q16552 20-155, limits assumed); assay: SPR BIAcore, biotinylated IL-17A on SA chip
T1 construct: biotinylated in the phage ELISA and on the SA chip; also called hIL-17A; human Interleukin 17A

[2] = target: T1, recombinant human IL-17A; assay: cell-based or functional assay
[3] = target: T2, bovine serum albumin (bovine, UniProt P02769); assay: ELISA on biotinylated BSA on streptavidin wells, anti-myc 9E10
T2 construct: also called BSA

[4] = target: T3, chymase (UniProt P23946 22-247); assay: cell-based or functional assay
T3 sequence (looked up): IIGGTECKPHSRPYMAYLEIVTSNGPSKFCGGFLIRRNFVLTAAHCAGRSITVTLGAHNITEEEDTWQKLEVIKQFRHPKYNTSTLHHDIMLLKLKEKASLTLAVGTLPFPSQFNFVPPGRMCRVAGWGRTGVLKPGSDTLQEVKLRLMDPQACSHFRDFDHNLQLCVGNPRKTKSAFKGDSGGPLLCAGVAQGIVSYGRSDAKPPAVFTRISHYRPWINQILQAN

[5] = target: T3, chymase; assay: SPR BIAcore, biotinylated chymase on SA chip
[6] = target: T4, rat serum albumin (rat, UniProt P02770 25-608); assay: ELISA of soluble protein on coated albumins
T4 construct: also called RSA
T4 sequence (P02770 25-608 limits assumed): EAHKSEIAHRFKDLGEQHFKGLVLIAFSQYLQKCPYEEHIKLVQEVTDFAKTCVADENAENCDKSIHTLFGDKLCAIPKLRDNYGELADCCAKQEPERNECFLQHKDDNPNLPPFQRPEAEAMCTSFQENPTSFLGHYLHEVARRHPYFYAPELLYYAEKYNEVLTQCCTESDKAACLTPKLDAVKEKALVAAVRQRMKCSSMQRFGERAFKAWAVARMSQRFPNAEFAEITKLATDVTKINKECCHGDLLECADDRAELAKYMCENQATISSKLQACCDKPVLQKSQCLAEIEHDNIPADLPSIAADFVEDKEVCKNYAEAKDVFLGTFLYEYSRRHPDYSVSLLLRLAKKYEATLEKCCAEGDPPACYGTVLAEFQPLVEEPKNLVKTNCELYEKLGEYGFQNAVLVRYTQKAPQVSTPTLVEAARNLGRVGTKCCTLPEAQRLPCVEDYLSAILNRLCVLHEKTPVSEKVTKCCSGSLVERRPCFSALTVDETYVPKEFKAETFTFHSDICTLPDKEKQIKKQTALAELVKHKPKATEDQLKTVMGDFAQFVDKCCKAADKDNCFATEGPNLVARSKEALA

[7] = target: T5, mouse serum albumin (mouse, UniProt P07724 25-608); assay: ELISA of soluble protein on coated albumins
T5 construct: also called MSA
T5 sequence (P07724 25-608 limits assumed): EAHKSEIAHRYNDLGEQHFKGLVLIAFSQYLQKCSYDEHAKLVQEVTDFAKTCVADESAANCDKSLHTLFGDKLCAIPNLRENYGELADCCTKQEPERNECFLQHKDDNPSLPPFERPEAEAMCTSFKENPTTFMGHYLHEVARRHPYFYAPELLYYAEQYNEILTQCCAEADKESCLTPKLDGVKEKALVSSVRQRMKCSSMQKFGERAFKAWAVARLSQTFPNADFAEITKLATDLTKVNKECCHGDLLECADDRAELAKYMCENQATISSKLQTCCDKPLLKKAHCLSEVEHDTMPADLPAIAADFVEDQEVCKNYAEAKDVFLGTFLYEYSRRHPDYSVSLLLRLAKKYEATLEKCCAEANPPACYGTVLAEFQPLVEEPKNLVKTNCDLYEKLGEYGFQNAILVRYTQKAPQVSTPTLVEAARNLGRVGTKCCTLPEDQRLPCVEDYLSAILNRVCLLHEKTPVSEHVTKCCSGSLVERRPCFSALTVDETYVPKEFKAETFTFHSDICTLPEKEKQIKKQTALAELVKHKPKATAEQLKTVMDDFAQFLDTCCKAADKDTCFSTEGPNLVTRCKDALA

[8] = target: T2, bovine serum albumin; assay: ELISA of soluble protein on coated albumins
T2 sequence (P02769 25-607 limits assumed): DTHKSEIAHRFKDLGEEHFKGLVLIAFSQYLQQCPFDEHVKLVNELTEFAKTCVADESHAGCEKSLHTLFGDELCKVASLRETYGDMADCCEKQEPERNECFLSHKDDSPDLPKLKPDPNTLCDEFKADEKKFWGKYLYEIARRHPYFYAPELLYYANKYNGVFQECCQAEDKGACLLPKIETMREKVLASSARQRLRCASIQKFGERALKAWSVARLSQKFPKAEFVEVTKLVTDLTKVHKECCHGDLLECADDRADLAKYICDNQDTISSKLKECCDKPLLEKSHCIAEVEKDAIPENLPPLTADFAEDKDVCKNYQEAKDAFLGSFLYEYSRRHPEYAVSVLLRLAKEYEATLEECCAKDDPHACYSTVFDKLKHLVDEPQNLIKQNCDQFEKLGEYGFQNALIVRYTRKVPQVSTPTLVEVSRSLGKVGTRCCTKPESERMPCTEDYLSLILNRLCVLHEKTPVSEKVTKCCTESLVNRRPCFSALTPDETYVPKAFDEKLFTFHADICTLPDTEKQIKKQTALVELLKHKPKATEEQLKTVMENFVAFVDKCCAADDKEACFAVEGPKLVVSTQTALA

[9] = target: T6, ovalbumin (chicken, UniProt P01012 2-386); assay: ELISA of soluble protein on coated albumins
T6 construct: also called hen egg white albumin; Albumin from chicken egg white
T6 sequence (looked up): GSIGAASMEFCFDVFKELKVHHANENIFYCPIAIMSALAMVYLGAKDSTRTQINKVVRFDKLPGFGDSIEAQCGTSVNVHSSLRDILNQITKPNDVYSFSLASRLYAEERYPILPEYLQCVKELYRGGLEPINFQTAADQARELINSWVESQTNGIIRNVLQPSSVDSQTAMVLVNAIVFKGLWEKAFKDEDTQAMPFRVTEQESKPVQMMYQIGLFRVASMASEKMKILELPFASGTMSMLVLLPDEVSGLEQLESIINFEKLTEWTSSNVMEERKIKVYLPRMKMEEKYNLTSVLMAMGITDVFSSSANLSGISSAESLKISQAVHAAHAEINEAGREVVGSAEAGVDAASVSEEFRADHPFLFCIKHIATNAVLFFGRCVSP

[10] = target: T7, human serum albumin (human, UniProt P02768); assay: ELISA of soluble protein on coated albumins
T7 construct: also called HSA

[11] = target: T8, EGFR on cells (UniProt P00533); assay: FACS MDA-MB-468 cells, lysate
T8 construct: whole, on cells; also called epidermal growth factor receptor

T1 sequence (Q16552 20-155 limits assumed): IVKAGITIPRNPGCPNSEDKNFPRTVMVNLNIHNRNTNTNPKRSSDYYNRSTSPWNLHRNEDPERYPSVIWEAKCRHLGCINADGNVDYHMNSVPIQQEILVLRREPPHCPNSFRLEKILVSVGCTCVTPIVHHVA

B1: E4 (IL-17A binder) (designed binder)
chain: GVTLFVALYDYKAFWPGDISFHKGEKFQILRTSDGEWWVARSLTTGEEGYIPSNYVAPVDSIQ
notes: also called clone E4
Kd [1]: 31 nM
inhibition of IL-17A induced IL-6 production in NHDF cells, IC50 [2]: ~6 nM

B2: H2 (designed binder)
chain: GVTLFVALYDYQADRWTDLSFHKGEKFQILRFDIGDWWEARSLTTGETGYIPSNYVAPVDSIQ
binding result [3]: no binding (tested: 200 nM)

B3: B5 (designed binder)
chain: GVTLFVALYDYNATRWTDLSFHKGEKFQILDGDSGDWWEARSLTTGETGYIPSNYVAPVDSIQ
binding result [3]: no binding (tested: 200 nM)

B4: D7 (designed binder)
chain: GVTLFVALYDYQADRWTDLSFHKGEKFQILSFHVGDWWEARSLTTGETGYIPSNYVAPVDSIQ
binding result [3]: no binding (tested: 200 nM)

B5: E4 (chymase binder) (designed binder)
chain: GVTLFVALYDYNATRWTDLSFHKGEKFQILEFGPGDWWEARSLTTGETGYIPSNYVAPVDSIQ
IC50 (nM), inhibition of chymase activity, fluorescent substrate [4]: 2 nM
Kd [5]: 0.9 nM
koff [5]: 0.00066 s⁻¹
binding result [3]: no binding (tested: 200 nM)

B6: F12 (designed binder)
chain: GVTLFVALYDYRAERSTDLSFHKGEKFQILDMTVPNGDWWEARSLTTGETGYIPSNYVAPVDSIQ
binding result [3]: no binding (tested: 200 nM)

B7: G2.3 (designed binder)
chain: GVTLFVALYDYNATRWTDLSFHKGEKFQILDWTTANGDWWEARSLTTGETGYIPSNYVAPVDSIQ
binding result [3]: no binding (tested: 200 nM)

B8: A4 (designed binder)
chain: GVTLFVALYDYQADRWTDLSFHKGEKFQILDASPPGDWWEARSLTTGETGYIPSNYVAPVDSIQ
binding result [3]: no binding (tested: 200 nM)

B9: E3 (designed binder)
chain: GVTLFVALYDYQADRWTDLSFHKGEKFQILNASGPGDWWEARSLTTGETGYIPSNYVAPVDSIQ
binding result [3]: no binding (tested: 200 nM)

B10: Fyn SH3 wild type protein (other)
chain: GVTLFVALYDYEARTEDDLSFHKGEKFQILNSSEGDWWEARSLTTGETGYIPSNYVAPVDSIQ
notes: control protein; also called Fyn SH3 wt; wild-type Fyn SH3 domain
binding result [6]: no binding
binding result [7]: no binding
binding result [8]: no binding
binding result [9]: no binding
binding result [10]: no binding

B11: SEQ ID NO 415 (designed binder)
chain: GVTLFVALYDYEARGLHRMFDLSFHKGEKFQILNRETGDWWEARSLTTGETGYIPSNYVAPVDSIQ
notes: myc-His tagged
binding result [11]: binds

B12: SEQ ID NO 419 (designed binder)
chain: GVTLFVALYDYEARGLNRMFDLSFHKGEKFQILLPQEGDWWEARSLTTGETGYIPSNYVAPVDSIQ
notes: myc-His tagged
binding result [11]: binds

B13: SEQ ID NO 420 (designed binder)
chain: GVTLFVALYDYEARGLHRMFDLSFHKGEKFQILDRTNGDWWEARSLTTGETGYIPSNYVAPVDSIQ
notes: myc-His tagged
binding result [11]: binds

B14: SEQ ID NO 418 (designed binder)
chain: GVTLFVALYDYEARGLNRMFDLSFHKGEKFQILDTSESGDWWEARSLTTGETGYIPSNYVAPVDSIQ
notes: myc-His tagged
binding result [11]: binds
